These results are taken from patent US20230234998A1 (ACCELERON PHARMA, published 2023).

In the experiment the target is T1, human BMP9 (human, UniProt Q9UK05 320-429).
T1 construct: Bought from R&D Systems
T1 sequence (looked up): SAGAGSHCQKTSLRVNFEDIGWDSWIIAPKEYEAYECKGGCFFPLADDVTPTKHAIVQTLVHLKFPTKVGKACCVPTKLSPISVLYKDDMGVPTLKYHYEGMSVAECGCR
Nature of the experiment: SPR (BIACORE), TWSG-Fc captured with anti-Fc antibody, ligand injected, 37 C. An excerpt:
Previous studies have determined that TWSG, or its nonmammalian homolog Tsg, binds with high affinity to BMP2, BMP4, and BMP7 (Oelgeschläger et al., 2000, Nature 405:757-763; Scott et al., 2001, Nature 410:475-478; Chang et al., 2001, Nature 410:483-487). Since these studies have not systematically evaluated TWSG (or Tsg) binding to other TGFβ superfamily ligands, Applicants used surface plasmon resonance to investigate and characterize such binding. In an initial qualitative screen, recombinant murine TWSG (mTWSG; R&D Systems, Minneapolis, MN) was covalently immobilized on a BIACORE™ CM5 chip, and more than 30 ligands generated in-house or obtained from R&D Systems were injected individually over the captured mTWSG to characterize their degree of binding at room temperature. Based on the results of this screen, Applicants subjected selected ligands to quantitative characterization of binding to human TWSG fusion protein at physiologic temperature. For this analysis, TWSG-Fc was expressed in CHO cells, purified as described in Example 1, captured on a BIACORE™ chip with anti-Fc antibody, and tested by surface plasmon resonance with the following ligands at 37° C.
For orientation: Surface plasmon resonance follows binding to a sensor surface in real time, without labels.

B1: human TWSG-Fc fusion protein (full-length human TWSG attached at its C-terminus to a human IgG1 Fc domain with a minimal linker) (Fc fusion)
chain: CNKALCASDVSKCLIQELCQCRPGEGNCSCCKECMLCLGALWDECCDCVGMCNPRNYSDTPPTSKSTVEELHEPIPSLFRALTEGDTQLNWNIVSFPVAEELSHHENLVSFLETVNQPHHQNVSVPSNNVHAPYSSDKEHMCTVVYFDDCMSIHQCKISCESMGASKYRWFHNACCECIGPECIDYGSKTVKCMNCMFTG[no letters for human IgG1 Fc and a few adjoining residues]
notes: a homodimer appears only in embodiments and claims; also called hTWSG-hFc; TWSG-hFc
In general, kon refers to the rate constant with which the complex forms. Read a high kon as fast association. Consider B1, for which the kon was approximately 5.7e+06 M⁻¹ s⁻¹.
